Laboratory results taken from publication PMC6212790.
The other results are listed elsewhere or left out. At the low end of the ranking the order means little.

These sequences were tested against T1, GST-Rok-C97-191 (UniProt O34857) (assay: protein binding microarray). Conditions: Rok is a gene silencer of Bacillus subtilis; high values mean tight binding; most listed sequences are background and not binding sites; double strand, one strand shown.
T1 sequence: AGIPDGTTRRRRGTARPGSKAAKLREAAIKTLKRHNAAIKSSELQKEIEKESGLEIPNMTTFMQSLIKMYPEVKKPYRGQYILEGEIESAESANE
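Further: rank score from −0.5 (least bound) to 0.5 (best bound).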

Row | Sequence | binding signal
1 | AGATCTGA | 0.0507 E-score
2 | AATAGGCC | -0.0959 E-score
3 | GAAGATAC | 0.186 E-score
4 | CTGAACAA | -0.0142 E-score
5 | CACTTGTA | 0.238 E-score
6 | CAAAGACA | -0.0129 E-score
7 | GCTACAGC | 0.141 E-score
8 | GAGTCAGA | -0.155 E-score
9 | GTTGTGTA | 0.169 E-score
10 | AAATTCCA | 0.103 E-score
11 | AATCGGGT | -0.0571 E-score
12 | ACGTGCAC | 0.0307 E-score
13 | CCAGCACC | -0.177 E-score
14 | AGGTATCC | 0.0358 E-score
15 | CCCAGCAC | -0.245 E-score
16 | GCTGGAAC | -0.0935 E-score
17 | AAAATCCC | 0.00514 E-score
18 | AGTGAGTG | -0.0687 E-score
19 | CTCACGAA | -0.062 E-score
20 | CCGTATTA | 0.172 E-score
21 | GGCCCGCA | -0.219 E-score
22 | GGGGTAGA | 0.156 E-score

Row | Sequence | binding signal
23 | CAGGAAAC | 0.103 E-score
24 | AACCACAA | -0.0553 E-score
25 | CATCCCCA | -0.111 E-score
26 | GGCCCTTA | -0.222 E-score
27 | CCGTCGGA | -0.101 E-score
28 | AACCCCTG | -0.151 E-score
29 | CCAGTCTA | -0.0781 E-score
30 | CATCGAAC | -0.135 E-score
31 | GTGACGTA | -0.169 E-score
32 | GAAGCCGC | -0.35 E-score
33 | ATACGTGG | -0.105 E-score
34 | GGTCGTTA | 0.0571 E-score
35 | CAAAACAC | -0.159 E-score
36 | CTGCAAGC | -0.228 E-score
37 | AACTAGTC | 0.0892 E-score
38 | CAGGCGCA | -0.202 E-score
39 | ACATACCT | 0.27 E-score
40 | ATAAAACC | 0.208 E-score
41 | ATGACCGC | -0.102 E-score
42 | CTATTCCA | -0.0229 E-score
43 | CAACTTCG | 0.00642 E-score
44 | CTCTTCAC | -0.0517 E-score

Row | Sequence | binding signal
45 | GTCCGGAA | -0.0863 E-score
46 | ATCGAATG | 0.0472 E-score
47 | CCGCCGGC | -0.4 E-score
48 | CCGCCCAC | -0.216 E-score
49 | AGAGCTTC | -0.253 E-score
50 | ACTTCAAT | 0.0342 E-score
51 | CCGTAGAA | 0.289 E-score
52 | AAGGCGCC | -0.282 E-score
53 | CGTGATAA | 0.219 E-score
54 | ATAAGTGG | 0.202 E-score
55 | CAGAGGTA | 0.0944 E-score
56 | ATCTTTTC | 0.076 E-score
57 | AACTCATG | -0.00495 E-score
58 | ACGTGCAT | -0.0397 E-score
59 | TCGAACCA | 0.00396 E-score
60 | GGGGATGA | -0.204 E-score
61 | ATGCCAAG | -0.16 E-score
62 | CCCGGGTC | -0.334 E-score
63 | CAAGCTGC | -0.171 E-score
64 | TTCAGCAA | -0.13 E-score
65 | CGTGCTTC | 0.0493 E-score
66 | GGGGCCCA | -0.336 E-score

Row | Sequence | binding signal
67 | AAAGGGAA | -0.091 E-score
68 | CACGTTAA | 0.136 E-score
69 | AGCGCATA | 0.231 E-score
70 | ATCTAGAG | 0.0411 E-score
71 | AACTAAAC | 0.00571 E-score
72 | GCACGTAA | -0.139 E-score
73 | ATAGGTTA | 0.162 E-score
74 | ACTCATAG | -0.144 E-score
75 | CCCAGCGA | -0.182 E-score
76 | TTAATGAA | 0.086 E-score
77 | ATTCGGTA | 0.317 E-score
78 | ATATTGGC | -0.00167 E-score
79 | GCGATGCA | -0.135 E-score
80 | GACTTCTC | 0.0676 E-score
81 | CACCACCA | -0.257 E-score
82 | ACCATCTC | -0.0625 E-score
83 | GAACCTTA | -0.0663 E-score
84 | GAGATCGA | -0.0169 E-score
85 | GAAGATCC | -0.193 E-score
86 | CCGAATTA | 0.223 E-score
